# Measured values: PubChem BioAssay AID1508623 (National Center for Advancing Translational Sciences (NCATS), 2021)
# The whole screen tested about 48,000 compounds, of which about 450 (0.94%) were called active. Inconclusive results (about 19%) are left out. The call rests on the fitted dose curve; in most records, active means well fitted inhibition curve with a large enough effect; inconclusive means small, poorly fitted or top-dose-only effect; inactive means no such curve, though single readings can be large or run the other way. The list shows a part of the results.
# Assay: Primary qHTS for Identification of Small Molecule Inhibitors of Huntingtin Promoter Activity; further: nearly all actives have a fitted effect of over 50% in size
# Details: HEK293 HTT promoter firefly luciferase reporter (activity 0% = vehicle and -100% = no light), 24 h; series mostly up to 57.5 µM; activity change, negative = inhibition: at the top concentration
# Source text: Assay Provider: Russell L. Margolis M.D.
# Department Neurology, Johns Hopkins University School of Medicine, Baltimore, MD
# Huntington's Disease (HD) is a neurodegenerative disorder caused by a CAG repeat expansion in exon 1 of huntingtin (HTT). While there are currently no disease-modifying treatments for HD, recent efforts have focused on development of nucleotide-based therapeutics to lower HTT expression. As an alternative to siRNA or oligonucleotide methods, we hypothesized that suppression of HTT expression might be accomplished by small molecules that either (1) directly decrease HTT expression by suppressing HTT promoter activity or (2) indirectly decrease HTT expression by increasing the promoter activity of HTT-AS, the gene antisense to HTT that appears to inhibit expression of HTT.
# We developed and employed a high throughput screen for modifiers of HTT and HTT-AS promoter activity using luminescent reporter HEK293 cells; of the 52,041 compounds tested, we identified 898 replicable hits. We used a rigorous stepwise approach to assess compound toxicity and the capacity of the compounds to specifically lower huntingtin protein in 5 different cell lines, including HEK293 cells, HD lymphoblastoid cells, mouse primary neurons, HD iPSCs differentiated into cortical-like neurons, and HD hESCs. We found no compounds which were able to lower huntingtin without lowering cell viability in all assays, though the potential efficacy of a few compounds at non-toxic doses could not be excluded.
# SEQUENCE No. (1, 2, 3, etc.); […] (e.g., Cells, Incubation, Reagent, etc.); VALUE and DESCRIPTION.
# 1; Reagent; 4 uL; 2,500 Hek293 luciferase reporter cells per wells
# 3; Compound; 23 nL; Control inhibitor / compound library
# 5; Reagent; 2.5 uL; Firefly Luc reagent; Dual-Glo Luciferase Reporter Assay System (Promega)
# 6; Time; 10 min; room temperature incubation
# 7; Detection; Luminescence; FLuc
# NOTES (numbers refer to sequence above)
# 1; High-throughput screening, measuring luminescence from a Hek293 luciferase reporter, was performed in 1,536 well white-walled tissue-culture treated plates. 2,500 cells were plated in 4 µL of Opti-MEM per well using a Multidrop Combi Reagent Dispenser (ThermoFisher).
# 2; Assay plates were cultured for 24 hours.
# 3; Control inhibitor (PTC124; final concentration of 50 uM) and compound library (at final concentrations of 460 nM - 57.5 uM) were added to the assay plate using the Kalypsis Pintool Robotic System equipped with 1536 pinheads.
# 4; Cells were then incubated for 24 hours at 37 degrees C prior to luminescence measurements.
# 5; In all cases, luminescence was measured using the Dual-Glo Luciferase Reporter Assay System (Promega) following the manufacturer's instructions.
# 6; Room temperature incubation.
# 7; Luminescence signal was obtained using the PerkinElmer ViewLux plate reader. Results were normalized to vehicle control (0% activity) and zero RLU (-100% activity).
row,SMILES,"activity change, negative = inhibition"
1,COc1ccc(Cn2c(SCC(=O)N(C)Cc3ccccc3)nc3ccccc32)cc1,inactive: 4.19%
2,Cc1ccc(NC(=O)Cn2c(=O)nc(-c3ccccc3)c3ccccc32)cc1F,inactive: -15.4%
3,Cc1cccc(-c2noc(-c3ccc(N4CCOCC4)c([N+](=O)[O-])c3)n2)c1,inactive: -14.8%
4,O=C(Nc1cnc(N2CCN(c3ccccc3)CC2)c(C(=O)O)c1)c1cccs1,inactive: -8.26%
5,CC1CCCCN1C(=O)c1cc(-c2ccc(Br)cc2)on1 (configuration not stated),inactive: 71.6%
6,COc1ccc(C2N=C(N)Nc3nc4ccccc4n32)cc1 (configuration not stated),inactive: -17.9%
7,CC1=C(C(=O)N2CCN(c3cccc(Cl)c3)CC2)C2(CCCCC2)OC1=O,inactive: -13.1%
8,CCOC(=O)C1CCN(c2nc3c(S(=O)(=O)c4ccc(C)c(C)c4)nnn3c3ccc(Cl)cc23)CC1,inactive: -14.3%
9,CCN(C(=O)c1cc2c(=O)oc3ccc(C)cc3c2s1)c1ccccc1C,inactive: -10.5%
10,CCN(CC)S(=O)(=O)c1ccc2nc(NC(=O)c3cncc(Br)c3)sc2c1,inactive: -21.4%
11,Cc1cccn2c(=O)c(C(=O)NC(C)c3ccccc3)cnc12 (configuration not stated),inactive: 7.3%
12,COc1ccc(N2CCN(C(=O)CSc3n[nH]c(-c4ccccc4Cl)n3)CC2)cc1,inactive: -14.2%
13,Cc1ccc(C(=O)c2cn(Cc3ccc(Cl)cc3)c3nc(C)ccc3c2=O)cc1,inactive: -13.9%
14,Cc1cc(C)c(NC(=O)C(C)n2nnc3sc4c(c3c2=O)CCCC4)c(C)c1 (configuration not stated),inactive: 15.7%
15,Cc1ccc(C)c(CN2C(=O)c3ccccc3S(=O)(=O)c3ccc(C(=O)NCCC4=CCCCC4)cc32)c1,inactive: -14.8%
16,Cc1cc(NC(=O)CN2C(=O)c3cccnc3Sc3ccccc32)ccc1Br,inactive: 0.702%
17,COc1ccc(OC)c2sc(N(Cc3cccnc3)C(=O)c3ccco3)nc12,inactive: -29.9%
18,CCc1ccccc1NC(=O)Nc1nnc(N(CC)c2ccccc2)s1,inactive: -17.5%
19,CCN1CCN(c2ncc3c(n2)CC(c2ccccc2O)CC3=O)CC1 (configuration not stated),inactive: -15.3%
20,Cc1ccc(CNC(=O)c2cc(-c3ccc(Cl)cc3)on2)cc1,inactive: 16.5%
21,Cc1ccc2oc(=O)c(S(=O)(=O)c3ccc(C(C)(C)C)cc3)cc2c1,inactive: -19.6%
22,CN(C)c1ccc(CNC(=O)CN2CCSc3ccc(S(=O)(=O)N(C)C)cc32)cc1,inactive: -28.3%
23,Cc1ccc(CNC(=O)CNS(=O)(=O)c2cccs2)cc1,inactive: 0.29%
24,Cc1ccc(NC(=O)C2CCN(c3nn4cc(-c5ccc(C)cc5)nc4s3)CC2)cc1,inactive: 19.4%

row,SMILES,"activity change, negative = inhibition"
1,CCN(c1ccccc1)S(=O)(=O)c1nnc(NC(=O)COc2cccc(C)c2)s1,inactive: -7.2%
2,CC(C)(C)c1ccc(C(=O)Nc2sc3c(c2C#N)CCC(C(C)(C)C)C3)cc1 (configuration not stated),inactive: 4.29%
3,CCOc1ccc(NC(=O)Cn2c(=O)n(CC(=O)NCc3ccccc3Cl)c(=O)c3sccc32)cc1,inactive: -12.4%
4,COc1cc(OC)c(NS(=O)(=O)c2c(C(=O)N3CCC(C)CC3)c(C)n(C)c2C)cc1Cl,inactive: -18.5%
5,Cc1nnc(NC(=O)CSCc2cc(=O)c3ccccc3[nH]2)s1,inactive: -0.593%
6,COc1ccc(CCNC(=O)CCn2c(=O)c3ccccc3n(Cc3ccccc3)c2=O)cc1OC,inactive: -12.7%
7,CC(C)c1nn2c(=O)cc(COC(=O)c3ccccc3NC(=O)c3cccc(Cl)c3)nc2s1,inactive: -14.8%
8,Cc1nc2ccn(Cc3cccnc3)c(=O)c2cc1C(=O)N1CCN(c2ccc(F)cc2)CC1,inactive: -16.3%
9,COC(=O)c1ccccc1NC(=O)c1cnc2c(-c3cccc(C)c3)c(C)nn2c1C,inactive: -12.4%
10,CN(C)CCNc1oc(-c2ccc(COc3ccc(Cl)cc3)o2)nc1C#N,inactive: -13.4%
11,Cc1cc(C)cc(Oc2nc3c(C)cccn3c(=O)c2/C=C(\C#N)c2nc3ccccc3s2)c1,inactive: -12.6%
12,COc1ccc(CCNC(=O)C(C)n2c(=O)cc(C(F)(F)F)c3c(C)nn(C)c32)cc1OC (configuration not stated),inactive: -17.3%
13,COc1ccc(N2CCN(Cc3nnc(-c4cccc(Br)c4)o3)CC2)cc1,inactive: -5.6%
14,CCS(=O)(=O)N1CC(=O)N(c2ccc(Cl)cc2)C(C)(C(=O)NC2CCCCCC2)C1 (configuration not stated),inactive: -13.7%
15,COc1ccc(CCn2c3c(c(=O)[nH]c2=O)C(NC(=O)c2ccc(C(C)(C)C)cc2)(C(F)(F)F)C(=O)N3)cc1OC (configuration not stated),inactive: -18.5%
16,COc1ccccc1Cc1nc2ccccc2nc1SCC(=O)N1CCN(c2ccccc2)CC1,inactive: 0.516%
17,COc1cccc(NC(=O)/C(C#N)=C/c2c(C)n(Cc3ccc(Cl)cc3)c3ccccc23)c1,inactive: -26.2%
18,CCOc1ccc(Nc2nc3c(S(=O)(=O)c4ccc(C(C)C)cc4)nnn3c3ccsc23)cc1,inactive: -5%
19,Cc1cc2nc(-c3ccc(NC(=O)c4cc5ccccc5o4)cc3)oc2cc1C,inactive: 44.5%
20,Cc1ccccc1CN1C(=O)c2ccccc2S(=O)c2ccc(C(=O)NCc3ccc4c(c3)OCO4)cc21 (configuration not stated),inactive: -17.7%
21,COc1cccc(CNC(=O)CCC(=O)N2CC(C)Sc3ccccc32)c1 (configuration not stated),inactive: -19.5%
22,COc1ccc(CNC(=O)C(=O)Nc2cc(Cl)ccc2OC)cc1,inactive: -11% [at 11.5 µM]
23,COc1ccc(N2CCN(S(=O)(=O)CCNC(=O)c3c(F)cccc3Cl)CC2)cc1,inactive: -17.8%
